Reference: PubChem BioAssay AID651820 (National Center for Advancing Translational Sciences (NCATS), 2012)
Out of some 340,000 compounds screened, about 12,000 (3.5%) were called active. Inconclusive means that the source gave no clear call. Such entries were picked first, then a sample of the others. Calls follow the shape of the dose curve; as a rule, active = well fitted inhibition curve with a large enough effect; inconclusive = small, poorly fitted or top-dose-only effect, or another doubt; inactive = no such curve, though single readings can be large or run the other way. No potency is given beside an inconclusive call; the fits are too rough.

Experiment: qHTS Assay for Inhibitors of Hepatitis C Virus (HCV)
Details: Huh7.5.1 HCVcc-Cre (HCVcc is cell-culture hepatitis C virus) infection, luciferase reporter, 44 h; activity change, negative = inhibition: at 41.8 µM (top of the series) unless noted
Method in brief: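 Luciferase read-out (15 sec integration) after a 15 min room-temperature substrate step quantifies HCVcc-Cre infection. Cells, 1,000 per well, had compound added 4 h post-plating, then virus at ~0.5 moi, and were cultured 44 h.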
% is scaled to controls: 0 for no effect and ±100 for the full control effect; potency is read from the fitted curve at half-maximal effect; tags tell the direction and shape of the fitted curve.

Row | Structure (SMILES) | activity change, negative = inhibition | Potency
1 | Cn1cnc([N+](=O)[O-])c1Sc1nc(N)nc2c1ncn2C1OC(CO)C(O)C1O (configuration not stated) | inactive: -25.1% | –
2 | O=C(c1ccccc1)N1CCN(c2ccc([N+](=O)[O-])cc2-n2cccc2)CC1 | – | inconclusive [inhibitor, single point]
3 | CCOC(=O)c1c(O)c2ccccc2n(CC)c1=O | inactive: 19.3% | –
4 | O=C1CCN2C=Nc3cccc4ccc1c2c34 | – | inconclusive [inhibitor, single point]
5 | COc1ccccc1C(C)NC(=O)CCNC(=O)c1ccc(Cl)cc1 (configuration not stated) | inactive: -2.97% | –
6 | CCOc1ccc(CCNS(=O)(=O)c2cnc[nH]2)cc1OCC | – | active: 6.31 µM
7 | CCCN(N=Nc1cccc([N+](=O)[O-])c1)c1cccc([N+](=O)[O-])c1 | – | active: 1.12 µM
8 | O=C1C2ON(c3ccc(Cl)cc3)C(c3ccco3)C2C(=O)N1c1ccccc1 (configuration not stated) | inactive: 2.71% | –
9 | COc1ccc(OCC(=O)NC(=S)N2CCCc3ccccc32)cc1 | – | inconclusive [inhibitor, single point]
10 | CN(C(=O)c1sc2nc(N3CCOCC3)c3c(c2c1N)CCCC3)c1ccccc1 | – | active: 11.2 µM
11 | COc1cccc(C(=O)OCC(=O)c2c(N)n(C)c(=O)n(C)c2=O)c1 | – | inconclusive [inhibitor, single point]
12 | NC(=O)CSc1nnc(CNc2ccc(F)cc2)n1CC1CCCO1 (configuration not stated) | inactive: 10.8% | –
13 | CCN1CCN(CC(O)COc2ccc3c(c2)CCC3)CC1 (configuration not stated) | – | inconclusive [inhibitor, single point]
14 | O=C(NC(=S)Nc1ccc(Br)c(Cl)c1)C1CC1 | – | active: 10 µM
15 | COC(=O)c1ccc(-c2ccc(/C=N/N3C(=O)C4C5C=CC(CC5)C4C3=O)o2)cc1 (configuration not stated) | – | inconclusive [inhibitor, single point]
16 | CCOC(=O)c1c(CSCc2ccccc2)oc2ccc(O)c(CN(C)C)c12 | – | inconclusive [inhibitor, partial curve]
17 | O=C(NC1C2CC3CC(C2)CC1C3)c1ccc(N2CCNCC2)c([N+](=O)[O-])c1 (configuration not stated) | inactive: -6.97% | –
18 | Cn1c2ccccc2n2c(=O)c(=O)n(CC(=O)c3ccc(Cl)cc3)nc12 | inactive: 31.1% | –
19 | COc1ccc(-c2cn(Cc3ccc4ccccc4c3)nn2)cc1 | – | inconclusive [inhibitor, single point]
20 | O=C(CCN1C(=O)CSc2ccccc21)Nc1ccc(OC(F)(F)F)cc1 | – | inconclusive [inhibitor, single point]
21 | CN(C)S(=O)(=O)N1CCN(CC(=O)Nc2cc(Cl)ccc2Cl)CC1 | – | inconclusive [inhibitor, single point]
22 | OCCNc1nc2nonc2nc1NCCO | inactive: 5.86% | –
23 | CCCCCCCSc1nnc(-c2ccccc2N)c(=O)[nH]1 | – | inconclusive [inhibitor, single point]
24 | FC(F)(F)c1cc(-c2ccco2)nc(-n2nnc3ccccc32)n1 | – | inconclusive [inhibitor, full curve]

Row | Structure (SMILES) | activity change, negative = inhibition | Potency
25 | O=C(CNS(=O)(=O)c1ccc([N+](=O)[O-])cc1)N/N=C/c1ccc(O)cc1O | – | inconclusive [inhibitor, single point]
26 | COc1cc2c(cc1OC)C(=O)N1[C@H]3c4cc(Cl)ccc4OC[C@@H]3[C@H](c3ccccc3)[C@]1(C)C(=O)N2 | – | inconclusive [inhibitor, single point]
27 | COc1ccc(C2/C=C\CN(S(=O)(=O)c3ccc(C)cc3)CC(=O)N2Cc2cccc(F)c2)cc1 (configuration not stated) | inactive: -47.5% | –
28 | Cc1ccc(C2CC(c3ccc(C)cc3)n3nc(N)nc3N2)cc1 (configuration not stated) | inactive: 1.71% | –
29 | COc1ccc2c3c(cccc13)C(=O)N(O)C2=O | – | inconclusive [inhibitor, partial curve, poor fit]
30 | COc1cc2c(cc1OC)CN(C(=O)Nc1ccccc1Cl)CC2 | – | inconclusive [inhibitor, single point]
31 | COc1ccccc1C(=O)c1c(C)c(CCC#N)n2ccccc12 | – | inconclusive [inhibitor, partial curve]
32 | COc1ccc(CNCCCC(=O)Nc2c(Cl)ccc(C)c2Cl)cc1OC | inactive: -25.9% | –
33 | CC(=O)N1CCN(c2ccccc2NC(=O)COc2ccc(Br)cc2)CC1 | inactive: -14.8% | –
34 | COC(=O)C1=C(c2ccc(Cl)c(C(F)(F)F)c2)C[C@@H]2CC[C@H]1N2C(=O)NCC1CC1 | – | inconclusive [inhibitor, single point]
35 | O=C(CN1C2CCC1CC(O)(c1cccnc1)C2)Nc1ccc2c(c1)OCO2 (configuration not stated) | inactive: -2.83% | –
36 | CCn1c(SCC(=O)N2CCCCCC2)nc2ccccc2c1=O | inactive: -16.2% | –
37 | O=C(CSc1nc2ccccc2c(=O)n1-c1ccc(F)cc1)Nc1ccc(C(=O)O)cc1 | inactive: 2.45% | –
38 | COc1ccc(O)c(/C=N/NC(=O)c2ccc(CSc3nc(C)cc(C)n3)cc2)c1 | – | active: 5.62 µM
39 | CN(C[C@H](Cc1ccccc1)N(C[C@H](Cc1cccc2ccccc12)N(CCc1ccccc1)N=O)N=O)N=O | inactive: -0.904% | –
40 | COc1cc(S(=O)(=O)N2CCOCC2)ccc1NC(=O)COC(=O)CC12CC3CC(CC(C3)C1)C2 | – | inconclusive [inhibitor, single point]
41 | CCOc1cc(/C=C2/N=C(c3ccc(C(C)(C)C)cc3)OC2=O)cc(Cl)c1OS(C)(=O)=O | – | inconclusive [inhibitor, partial curve, poor fit]
42 | COc1ccc(OC)c(NC(=O)CSc2ccc(-c3ccco3)nn2)c1 | – | inconclusive [inhibitor, partial curve]
43 | CC(=O)c1ccc(Nc2cc(C)nc3c(C)cc(C)cc23)cc1 | – | inconclusive [inhibitor, single point]
44 | COc1ccc(C(=O)O)cc1NC(=S)NC(=O)C(c1ccccc1)c1ccccc1 | inactive: 20.5% | –
45 | O=C1NC2C(=CC(O)C(O)C2O)c2cc3c(c(O)c21)OCO3 (configuration not stated) | – | active: 0.251 µM
46 | CN(CCCNC(=O)CSc1cc(=O)n(C)c2cc(Cl)ccc12)Cc1ccccc1 | – | inconclusive [inhibitor, partial curve]
47 | Cc1cc(NC(=O)c2cc3n(n2)C(C(F)(F)F)CC(c2ccc(Cl)c(Cl)c2)N3)no1 (configuration not stated) | – | inconclusive [inhibitor, single point]
